Assay results: PubChem BioAssay AID2546 (National Center for Advancing Translational Sciences (NCATS), 2010)
Among all 310,000 compounds or so, about 11,000 (3.5%) were called active. Inconclusive results, whose numbers are uncertain, are shown with a selection of clear calls. Calls follow the shape of the dose curve; as a rule, active = well fitted inhibition curve with a large enough effect; inconclusive = small, poorly fitted or top-dose-only effect, or effect the other way; inactive = flat fitted curve, though single readings scatter. No potency is given beside an inconclusive call; the fits are too rough.

assay: VP16 counterscreen qHTS for inhibitors of ROR gamma transcriptional activity; settings: Drosophila S2 Gal4-VP16 UAS-luciferase, luminescence, 20 h; activity, negative = inhibition: at 53.6 µM (top of the series);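 also: Gal4-VP16 expression switched on by copper sulfate through the metallothionein promoter; nearly all actives have a fitted effect of over 50% in size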
% is scaled to controls: 0 for no effect and ±100 for the full control effect; potency is read from the fitted curve at half-maximal effect; tags tell the direction and shape of the fitted curve.

Row | SMILES | Potency | activity, negative = inhibition
1 | O=C(COC(=O)c1ccccc1Nc1ccccc1)NCc1ccco1 | inconclusive [inhibitor, single point] | 
2 | CC(NC(=O)/C=C/c1cnc2ccccc2n1)C12CC3CC(CC(C3)C1)C2 (stereo not given) | inconclusive [inhibitor, single point] | 
3 | C=CCn1c(C)cc(C(=O)CSc2nc3ccccc3c(=O)[nH]2)c1C | inconclusive [inhibitor, single point] | 
4 | Cc1ccc(OCCNc2cc(N3CCN(CCO)CC3)ccc2[N+](=O)[O-])cc1C | inconclusive [inhibitor, single point] | 
5 | COc1cccc(/C=N/NC(=S)NC2CC3CCC2C3)c1OC (stereo not given) | active: 2.82 µM | 
6 | Cc1cccc(NCc2ccc(O)c3ncccc23)c1C | inconclusive [inhibitor, single point] | 
7 | Cc1c(O)ccc2c(CN(C)Cc3ccccc3)cc(=O)oc12 | inconclusive [inhibitor, single point] | 
8 | Cc1ccc(C(=O)O/N=C/c2c(N3CCOCC3)n(C)c3ccccc23)cc1 | active: 3.55 µM | 
9 | CCOC(=O)c1c(-c2ccc(OC)cc2)csc1/N=C/C1C(=O)CCCC1=O | inconclusive [inhibitor, single point] | 
10 | Nc1nnc(SC2CC(=O)N(c3ccccc3)C2=O)s1 (stereo not given) | active: 10 µM | 
11 | Cn1c(Cc2cccc3ccccc23)nnc1SCC(=O)N1CCN(c2cccc(Cl)c2)CC1 | inconclusive [inhibitor, single point] | 
12 | N#C/C(=C(/O)COC(=O)c1ccc(Cl)c(S(=O)(=O)N2CCOCC2)c1)c1nc2ccccc2[nH]1 | active: 7.08 µM | 
13 | CN(C)CCNc1nc2sc3c(c2c(=O)n1CCc1ccccc1)CCCCC3 |  | inactive: -4.73%
14 | CCN(CC)c1ccc(/C=N/NC(=O)OC)c(O)c1 | inconclusive [inhibitor, single point] | 
15 | Cc1nn(-c2ccccc2)c(C)c1/C=N\NS(=O)(=O)c1ccc(Cl)cc1 |  | inactive: 4.42%
16 | CCn1cc(C(=O)NCc2ccco2)c(=O)c2cc(S(=O)(=O)N3CCC(C)CC3)ccc21 |  | inactive: 3.82%
17 | COc1cc(/C=N\NC(=O)C(C)(C)O)ccc1OC/C=C/c1ccccc1 | inconclusive [inhibitor, single point] | 
18 | c1ccc2oc(-c3csc(NCC4CCCO4)n3)cc2c1 (stereo not given) | inconclusive [inhibitor, single point] | 
19 | COCCN(C)Cc1cn(-c2ccc(F)cc2F)nc1-c1ccccc1C | inconclusive [inhibitor, single point] | 
20 | CC1(C)C(=O)Nc2ccccc2N1C(=O)Cn1ncc(Cl)c(Cl)c1=O | inconclusive [inhibitor, single point] | 
21 | FC(F)(F)c1cnc(NNC(=S)Nc2cccnc2)c(Cl)c1 | inconclusive [inhibitor, single point] | 
22 | Cc1cccc2sc(N(CCCN(C)C)C(=O)c3sc4ccccc4c3Cl)nc12 | inconclusive [inhibitor, single point] | 
23 | CN(C)c1ccc(N=Cc2nc(-c3ccccc3)oc2OC(=O)c2cccc(Br)c2)cc1 | inconclusive [inhibitor, single point] | 

Row | SMILES | Potency | activity, negative = inhibition
24 | COCCCNc1c2c(nc3nnnn13)CCCC2 |  | inactive: -10.1%
25 | C/C(N)=C(/C#N)C(=O)COC(=O)c1cccc2ccccc12 | inconclusive [activator, single point] | 
26 | CCOC(=O)Cc1csc(NC(=S)NC(=O)c2ccc([N+](=O)[O-])cc2)n1 | inconclusive [inhibitor, single point] | 
27 | CC(C)(C)OC(=O)N1CCC(c2c(C(=O)NCC3CCN(C4CCCC4)C3)cnn2-c2ccc(F)cc2)CC1 (stereo not given) |  | inactive: -8.74%
28 | O=C1CCCC(=O)N1c1ccc(Oc2ccc(Cl)cc2)cc1 | inconclusive [inhibitor, single point] | 
29 | Cc1ccc(C(C#N)c2ccc3c(C(F)(F)F)cc(C(F)(F)F)nc3n2)cc1 (stereo not given) |  | inactive: -26%
30 | O=C(NNC(=O)c1ccccc1O)c1ccc(Br)cc1 | active: 20 µM | 
31 | Cc1cc(C)c2c(N)c(C(=O)Nc3ccc([N+](=O)[O-])cc3)sc2n1 | inconclusive [activator, full curve, poor fit] | 
32 | Cc1ccc(Cl)c(OC(=O)c2ccc(N3CCOCC3)c([N+](=O)[O-])c2)c1 | inconclusive [inhibitor, single point] | 
33 | CCOC(=O)c1ccc(Nc2nc(C)nc3c2nnn3Cc2ccccc2)cc1 | inconclusive [inhibitor, single point] | 
34 | CCCOc1ccc(N2C(=O)CC(NNC(=O)c3ccc(COc4ccccc4)o3)C2=O)cc1 (stereo not given) | inconclusive [inhibitor, single point] | 
35 | CCCn1c(CNc2ccccc2O)nc2ccccc21 | inconclusive [inhibitor, single point] | 
36 | CCOc1ccc(NS(=O)(=O)c2ccc3[nH]c(=O)[nH]c3c2)cc1 | inconclusive [inhibitor, single point] | 
37 | Nc1nc(SCc2ccccc2Cl)[nH]c(=O)c1-c1ccccc1 |  | inactive: 18%
38 | CCN1C(=O)/C(=C\c2cccn2-c2ccc([N+](=O)[O-])cc2)N(CC)C1=S | inconclusive [activator, single point] | 
39 | CC(C)(C)C(=O)OCOP(=O)(COCCn1cnc2c(N)ncnc21)OCOC(=O)C(C)(C)C |  | inactive: -2.82%
40 | CCn1nc(NC(=O)c2ccncc2)c2cc3cccc(C)c3nc21 |  | inactive: 4.04%
41 | CO/N=C/c1ccc(Sc2ccccc2N)c([N+](=O)[O-])c1 |  | inactive: 1.24%
42 | CC1=CC(C)(C)N(C(=O)CN2C(=O)c3ccccc3C2=O)c2ccc(C)cc21 | active: 20 µM | 
43 | Cc1ccc(CSc2nnc(C)c(=O)n2N)cc1 | inconclusive [activator, partial curve] | 
44 | COc1ccc(CCNC(=O)c2ccc(-c3ccc([N+](=O)[O-])cc3Cl)o2)cc1 |  | inactive: -1.42%
45 | O=C(/C=C/Nc1ccccc1F)c1ccc(Br)cc1 | inconclusive [inhibitor, single point] | 
